From the supplement of paper PMC11417369
± gives the standard deviation of the averaged measurements. The list shows a part of the results.

System: PfAP2-I AP2 domain 3 (GST-tagged)
Experiment: gcPBM binding intensity (ln(normalized median fluorescence intensity)); higher = stronger DNA binding
Method in brief: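 Each value is the highest Masliner-normalised natural-log median intensity across replicate spots of either orientation of a probe. The probes were primer-extended double-stranded 36-bp intergenic genomic sequences on an Agilent 4 × 180k array, alongside negative controls, exposed for 1 h to GST-tagged P. falciparum DNA-binding domains expressed in E. coli. Bound protein was picked up with Alexa488 anti-GST antibody and scanned at 488 nm.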

Sequence | gcPBM binding intensity (ln)
ATATGTTAAAAATTCACACAAAAAAGTATACAGATA [CACACA_site4179] | 7.66 ± 0.47
TTACCTATTCTAAAATGTACACATTATATATGTGCT [XGTACX_site5776] | 7.82 ± 0.45
ACATGTTTCATATGTTGTACTAACTTAAATATAAAT [XGTACX_site6412] | 7.8 ± 0.52
CCAACATATATTATCACACACATATATATATATATA [CACACA_site2016] | 9.46 ± 0.68
ATATTAGATTAATTTACACACAGAAAATGAGATTTT [CACACA_site541] | 7.59 ± 0.45
AATAAACAAATATGTACACACATATACCTATAAATA [CACACA_site7358] | 7.82 ± 0.43
TAGAGTATATATAAATGTACATATTTTATGCTAATT [XGTACX_site7821] | 7.7 ± 0.44
AAAAAATTAAATAATTACAAAAAAATAAAATAAAAA [GTGCAC_negctrl_site638] | 7.5 ± 0.59
AAAAATAATGCACATATATATAATATGTATATGTAT [CACACA_negctrl_site443] | 11 ± 0.6
ATGTTTACATATTAGGGTACATAATAAATTGCATAT [XGTACX_site6712] | 7.99 ± 0.47
TTTTAAACAAGACACACACACATATATATATATATA [CACACA_site925] | 9.47 ± 0.54
TTATTGTAAATATATGCATGTGCAAAATGAAAAAAA [TGCATGCA_site399] | 9.8 ± 0.11
GAATGTATAAAATGAACACACGCCAAATTAAATGAA [CACACA_site3044] | 7.58 ± 0.61
CATGTATTTTATATTACACACTAATATTATATATAT [CACACA_site1508] | 8.09 ± 0.57
ATAAAATAAAAAAGTAGTACACACTTCACGATATTT [XGTACX_site8289] | 8 ± 0.16
ATAATTATAAAATAAACACACATATATATTTATATG [CACACA_site440] | 7.42 ± 0.47
ATTATGTTATATATATGTACATATATAATGTTCATA [XGTACX_site6184] | 7.72 ± 0.29
AATAAATAAACAAATTAACACACAGAATTTTTTTTT [CACACA_site8485] | 7.46 ± 0.6
ATAATGATTATAATATGTACATAAATATATATATTA [XGTACX_site5029] | 7.7 ± 0.35
AAACAATACATATATTGTACATATATTATATTATAT [XGTACX_site8136] | 7.66 ± 0.3
AAAAAATCAAAACACACACACACACCCAAAAAAAAA [CACACA_site1444] | 8.42 ± 0.27
CGGATCTATAAGTGTACACAATCTAGCGAAAAGTTT [CACACA_site4932] | 7.89 ± 0.6

Sequence | gcPBM binding intensity (ln)
AATTTGAAATAAAGTAGTACAGTATATAAAAATATA [XGTACX_site128] | 7.79 ± 0.42
TTAGAAATTCATTTTACACACAATTCAAAAGAATGT [CACACA_site2104] | 7.45 ± 0.39
AAAAAGAATAAATAAATAAATAAATATATATATATA [GTGCAC_negctrl_site584] | 9.29 ± 0.74
TTTATTACTATGTAAACACACATGCAATATATGTTA [CACACA_site1114] | 7.88 ± 0.59
AAAAAGAAAAAAAAATGTACATAAAGTCTAATGATA [XGTACX_site4781] | 8.04 ± 0.61
ATATTATATAAATACACACACACATGCATGCACATA [CACACA_site4236] | 9.31 ± 0.31
AAAACAAATAAGTAAACACACATATAAAATCTATAT [CACACA_site7262] | 7.6 ± 0.64
CCTATTTATTTATACACACACATATATAAATAAATA [CACACA_site7417] | 8.3 ± 0.32
TTATGTAAATGCTTATGTACTTATTACAATATTTTT [XGTACX_site4057] | 7.54 ± 0.54
TAAGAATTGAAAAAATGTACACAATATAAAATTGAA [XGTACX_site698] | 7.62 ± 0.45
CAAATACAGAAACACACACACATATACATATATATA [CACACA_site3498] | 8.15 ± 0.73
AAAATCTAGGTATTTATACACACTAAAATAATATAC [CACACA_site623] | 7.75 ± 0.61
ATGTTATTAAAAAAGGGTACACATCTTTTATGTTAA [XGTACX_site812] | 7.96 ± 0.19
AATATGTAATAGTGTACACATATATCTGTATTTATG [CACACA_site4252] | 7.89 ± 0.55
TTTAAATATAATTGGAGTACTTATAATATATATATA [XGTACX_site7247] | 8.97 ± 0.12
ATTACACATATAGTAGTGCAATAACTCCAAAAAAAA | 11.4 ± 0.6
TATATATATATATGGGGTACAAATGGTCAGTATTAT [XGTACX_site1223] | 9.52 ± 0.44
AAAAAGGGTATTATTACACACACGTAAATATTAAGA [CACACA_site4233] | 7.73 ± 0.65
GAAAATATAAAAAAAAGTACATTTTCTCTAAATATA [XGTACX_site2441] | 7.57 ± 0.35
CTATATAATATGAGCACACATAAGATTTGGTGTTAT [CACACA_site744] | 8.02 ± 0.32
AAAAAAAAATTATATACACACATATAAATATATATA [CACACA_site1197] | 7.75 ± 0.67
ATTTATATTACAAAAAGTACACACATAAATAAATAC [XGTACX_site1827] | 8.41 ± 0.27
